# Some of the results follow.
# Columns and labels:
# Test in all cases: glycan array binding signal (z-score within array); higher = stronger binding
# Settings in all cases: glycan notation: IUPAC condensed, linker removed
# [1] = molecular target: Fuc(a1-2)Gal
# Method in brief: (§1)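 From the Consortium for Functional Glycomics database, 3228 arrays were curated, keeping only those whose protein sequence was available. Binding is given as a within-array Z-score averaged across arrays sharing a protein sequence and across linkers. Negative Z-scores can be read as non-binding.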
# [2] = molecular target: Fuc(a1-2)Gal(b1-3)GalNAc
# Method in brief: as §1
# [3] = molecular target: Fuc(a1-2)Gal(b1-3)GalNAc(b1-3)Gal
# Method in brief: as §1
# [4] = molecular target: Fuc(a1-2)Gal(b1-3)GalNAc(b1-3)Gal(a1-4)Gal(b1-4)Glc
# Method in brief: as §1
# [5] = molecular target: Fuc(a1-2)Gal(b1-3)GalNAc(b1-4)[Neu5Ac(a2-3)]Gal(b1-4)Glc
# Method in brief: as §1
# [6] = molecular target: Fuc(a1-2)Gal(b1-3)GlcNAc
# Method in brief: as §1
# [7] = molecular target: Fuc(a1-2)Gal(b1-3)GlcNAc(b1-3)Gal(b1-4)Glc
# Method in brief: as §1
# [8] = molecular target: Fuc(a1-2)Gal(b1-3)[Fuc(a1-4)]GlcNAc
# Method in brief: as §1
# [9] = molecular target: Fuc(a1-2)Gal(b1-4)Glc
# Method in brief: as §1
# [10] = molecular target: Fuc(a1-2)Gal(b1-4)GlcNAc
# Method in brief: as §1
# [11] = molecular target: Fuc(a1-2)Gal(b1-4)GlcNAc(b1-3)Gal(b1-4)GlcNAc
# Method in brief: as §1
# [12] = molecular target: Fuc(a1-2)Gal(b1-4)GlcNAc(b1-3)Gal(b1-4)GlcNAc(b1-3)Gal(b1-4)GlcNAc
# Method in brief: as §1
# [13] = molecular target: Fuc(a1-2)Gal(b1-4)[Fuc(a1-3)]GlcNAc
# Method in brief: as §1
# [14] = molecular target: Fuc(a1-2)Gal(b1-4)[Fuc(a1-3)]GlcNAc(b1-3)Gal(b1-4)[Fuc(a1-3)]GlcNAc
# Method in brief: as §1
# [15] = molecular target: Fuc(a1-2)Gal(b1-4)[Fuc(a1-3)]GlcNAc(b1-3)Gal(b1-4)[Fuc(a1-3)]GlcNAc(b1-3)Gal(b1-4)[Fuc(a1-3)]GlcNAc
# Method in brief: as §1
# [16] = molecular target: Fuc(a1-2)GlcNAc
# Method in brief: as §1
# [17] = molecular target: Fuc(a1-2)[Gal(a1-3)]Gal
# Method in brief: as §1
# [18] = molecular target: Fuc(a1-2)[Gal(a1-3)]Gal(b1-3)GlcNAc
# Method in brief: as §1
# [19] = molecular target: Fuc(a1-2)[Gal(a1-3)]Gal(b1-4)Glc
# Method in brief: as §1
# [20] = molecular target: Fuc(a1-2)[Gal(a1-3)]Gal(b1-4)GlcNAc
# Method in brief: as §1
# [21] = molecular target: Fuc(a1-2)[Gal(a1-3)]Gal(b1-4)[Fuc(a1-3)]GlcNAc
# Method in brief: as §1
# [22] = molecular target: Fuc(a1-2)[Gal(a1-4)]Gal(b1-4)GlcNAc
# Method in brief: as §1
# [23] = molecular target: Fuc(a1-2)[GalNAc(a1-3)]Gal
# Method in brief: as §1
# [24] = molecular target: Fuc(a1-2)[GalNAc(a1-3)]Gal(b1-3)GlcNAc
# Method in brief: as §1
# [25] = molecular target: Fuc(a1-2)[GalNAc(a1-3)]Gal(b1-4)Glc
# Method in brief: as §1
# [26] = molecular target: Fuc(a1-2)[GalNAc(a1-3)]Gal(b1-4)GlcNAc
# Method in brief: as §1
# [27] = molecular target: Fuc(a1-2)[GalNAc(a1-3)]Gal(b1-4)[Fuc(a1-3)]GlcNAc
# Method in brief: as §1
# [28] = molecular target: Fuc(a1-2)[GalNAc(a1-4)]Gal(b1-4)GlcNAc
# Method in brief: as §1
# [29] = molecular target: Fuc(a1-2)[GalNAc(b1-3)]Gal
# Method in brief: as §1
# [30] = molecular target: Fuc(a1-3)GlcNAc
# Method in brief: as §1
# [31] = molecular target: Fuc(a1-3)[Gal(b1-4)]GlcNAc
# Method in brief: as §1
# [32] = molecular target: Fuc(a1-3)[Gal(b1-4)]GlcNAc(b1-4)Gal(b1-4)[Fuc(a1-3)]GlcNAc
# Method in brief: as §1
# [33] = molecular target: Fuc(a1-3)[Gal(b1-4)]GlcNAc(b1-4)Gal(b1-4)[Fuc(a1-3)]GlcNAc(b1-4)Gal(b1-4)[Fuc(a1-3)]GlcNAc
# Method in brief: as §1
# [34] = molecular target: Fuc(a1-3)[Gal3S(b1-4)]GlcNAc
# Method in brief: as §1
# [35] = molecular target: Fuc(a1-3)[GalNAc(b1-4)]GlcNAc
# Method in brief: as §1
# [36] = molecular target: Fuc(a1-4)GlcNAc
# Method in brief: as §1
# [37] = molecular target: Fuc(b1-3)GlcNAc
# Method in brief: as §1
# [38] = molecular target: Gal(a1-2)Gal
# Method in brief: as §1
# [39] = molecular target: Gal(a1-3)Gal
# Method in brief: as §1
# [40] = molecular target: Gal(a1-3)Gal(b1-3)GlcNAc
# Method in brief: as §1
# [41] = molecular target: Gal(a1-3)Gal(b1-4)Glc
# Method in brief: as §1
# [42] = molecular target: Gal(a1-3)Gal(b1-4)GlcNAc
# Method in brief: as §1
# [43] = molecular target: Gal(a1-3)Gal(b1-4)[Fuc(a1-3)]GlcNAc
# Method in brief: as §1
# [44] = molecular target: Gal(a1-3)GalNAc
# Method in brief: as §1
# [45] = molecular target: Gal(a1-3)[Gal(a1-4)]Gal(b1-4)GlcNAc
# Method in brief: as §1
# [46] = molecular target: Gal(a1-4)Gal(b1-4)Glc
# Method in brief: as §1
# [47] = molecular target: Gal(a1-4)Gal(b1-4)GlcNAc
# Method in brief: as §1
# [48] = molecular target: Gal(a1-4)GlcNAc
# Method in brief: as §1
# [49] = molecular target: Gal(a1-6)Glc
# Method in brief: as §1
# [50] = molecular target: Gal(b1-2)Gal
# Method in brief: as §1
# [51] = molecular target: Gal(b1-3)Gal
# Method in brief: as §1
# [52] = molecular target: Gal(b1-3)GalNAc
# Method in brief: as §1
# [53] = molecular target: Gal(b1-3)GalNAc(b1-3)Gal(a1-4)Gal(b1-4)Glc
# Method in brief: as §1
# [54] = molecular target: Gal(b1-3)GalNAc(b1-4)Gal(b1-4)Glc
# Method in brief: as §1
# [55] = molecular target: Gal(b1-3)GalNAc(b1-4)[Neu5Ac(a2-3)]Gal(b1-4)Glc
# Method in brief: as §1
# [56] = molecular target: Gal(b1-3)GlcNAc
# Method in brief: as §1
# [57] = molecular target: Gal(b1-3)GlcNAc(b1-3)Gal(b1-4)Glc
# Method in brief: as §1
# [58] = molecular target: Gal(b1-3)GlcNAc(b1-3)Gal(b1-4)GlcNAc
# Method in brief: as §1
# [59] = molecular target: Gal(b1-3)[Fuc(a1-4)]GlcNAc
# Method in brief: as §1
# [60] = molecular target: Gal(b1-3)[Fuc(a1-4)]GlcNAc(b1-3)Gal(b1-4)GlcNAc
# Method in brief: as §1
binder,measurement,setting,value
"DCAL1 (Homo sapiens), Q8IZS7 (protein) MVSNFFHVIQVFEKSATLISKTEHIGFVIYSWRKSTTHLGSRRKFAISIYLSEVSLQKYDCPFSGTSFVVFSLFLICAMAGDVVYADIKTVRTSPLELAFPLQRSVSFNFSTVHKSCPAKDWKVHKGKCYWIAETKKSWNKSQNDCAINNSYLMVIQDITAMVRFNI",glycan array binding signal (z-score),[1],-0.222
same,glycan array binding signal (z-score),[2],-0.207
same,glycan array binding signal (z-score),[3],-0.131
same,glycan array binding signal (z-score),[4],-0.16
same,glycan array binding signal (z-score),[5],-0.124
same,glycan array binding signal (z-score),[6],-0.196
same,glycan array binding signal (z-score),[7],-0.137
same,glycan array binding signal (z-score),[8],-0.258
same,glycan array binding signal (z-score),[9],-0.259
same,glycan array binding signal (z-score),[10],-0.108
same,glycan array binding signal (z-score),[11],-0.039
same,glycan array binding signal (z-score),[12],-0.202
same,glycan array binding signal (z-score),[13],-0.209
same,glycan array binding signal (z-score),[14],-0.199
same,glycan array binding signal (z-score),[15],-0.148
same,glycan array binding signal (z-score),[16],-0.188
same,glycan array binding signal (z-score),[17],-0.115
same,glycan array binding signal (z-score),[18],-0.151
same,glycan array binding signal (z-score),[19],-0.234
same,glycan array binding signal (z-score),[20],-0.172
same,glycan array binding signal (z-score),[21],-0.216
same,glycan array binding signal (z-score),[22],-0.254
same,glycan array binding signal (z-score),[23],-0.2
same,glycan array binding signal (z-score),[24],-0.174
same,glycan array binding signal (z-score),[25],-0.191
same,glycan array binding signal (z-score),[26],-0.203
same,glycan array binding signal (z-score),[27],-0.107
same,glycan array binding signal (z-score),[28],-0.139
same,glycan array binding signal (z-score),[29],-0.13
same,glycan array binding signal (z-score),[30],-0.23
same,glycan array binding signal (z-score),[31],-0.107
same,glycan array binding signal (z-score),[32],-0.069
same,glycan array binding signal (z-score),[33],-0.214
same,glycan array binding signal (z-score),[34],-0.246
same,glycan array binding signal (z-score),[35],-0.168
same,glycan array binding signal (z-score),[36],-0.271
same,glycan array binding signal (z-score),[37],-0.293
same,glycan array binding signal (z-score),[38],-0.273
same,glycan array binding signal (z-score),[39],-0.2
same,glycan array binding signal (z-score),[40],-0.109
same,glycan array binding signal (z-score),[41],0.001
same,glycan array binding signal (z-score),[42],-0.169
same,glycan array binding signal (z-score),[43],-0.072
same,glycan array binding signal (z-score),[44],-0.214
same,glycan array binding signal (z-score),[45],-0.226
same,glycan array binding signal (z-score),[46],-0.197
same,glycan array binding signal (z-score),[47],-0.217
same,glycan array binding signal (z-score),[48],-0.075
same,glycan array binding signal (z-score),[49],-0.201
same,glycan array binding signal (z-score),[50],-0.213
same,glycan array binding signal (z-score),[51],-0.244
same,glycan array binding signal (z-score),[52],-0.214
same,glycan array binding signal (z-score),[53],-0.25
same,glycan array binding signal (z-score),[54],-0.169
same,glycan array binding signal (z-score),[55],-0.211
same,glycan array binding signal (z-score),[56],-0.172
same,glycan array binding signal (z-score),[57],-0.181
same,glycan array binding signal (z-score),[58],-0.209
same,glycan array binding signal (z-score),[59],-0.102
same,glycan array binding signal (z-score),[60],-0.35

# — the supplement of paper PMC8728848
